The list shows a part of the results. Sequences were assembled here from the parent chain. Inactive controls read about 0.05.
B1: TEV protease; numbered along this chain (parent)
chain: MGESLFKGPRDYNPISSSICHLTNESDGHTTSLYGIGFGPFIITNKHLFRRNNGTLVVQSLHGVFKVKDTTTLQQHLVDGRDMIIIRMPKDFPPFPQKLKFREPQREERICLVTTNFQTKSMSSMVSDTSCTFPSGDGIFWKHWIQTKDGQCGSPLVSTRDGFIVGIHSASNFTNTNNYFTSVPKNFMELLTNQEAQQWVSGWRLNADSVLWGGHKVFMVKPEEPFQPVKEATQL

Variants of: B1
Experiment: raw area under fraction-flipped curve 0-4 h after induction (AUC4h, not background-subtracted), DNA-recorder readout of cleavage of the substrate (dimensionless); higher = more cleavage of the substrate by the protease variant
Settings: temperature: 34 °C; time window: 0-4 h after rhamnose induction
Description: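 In vivo DNA recorder in E. coli TOP10(DE3) ΔrhaA at 34 °C. Each TEVp single-site mutant (parent TEVp 0) is paired with a single-site variant of the 7-mer TEVs (canonical ENLYFQ|S). The substrate sits between flexible linkers in a Bxb1-sfGFP-TEVs-SsrA fusion, so cleavage stabilises Bxb1 and speeds flipping of a recombination array, read by NGS. The value is the raw area under the fraction-flipped curve over 0-4 h after rhamnose induction (AUC4h), with ≥20 reads per time point. It is not background-subtracted; inactive controls average about 0.047.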
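Also: Bxb1 expression induced with 0.2% (w/v) L-rhamnose at OD600 near 0.5, cultures sampled hourly, flipped fraction per protease–substrate barcode pair counted by paired-end Illumina sequencing.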

Variant	area with substrate CNLYFQS	area with substrate DNLYFQS	area with substrate GNLYFQS	area with substrate HNLYFQS	area with substrate INLYFQS	area with substrate KNLYFQS	area with substrate LNLYFQS	area with substrate MNLYFQS	area with substrate NNLYFQS	area with substrate PNLYFQS	area with substrate SNLYFQS	area with substrate TNLYFQS	area with substrate VNLYFQS	area with substrate WNLYFQS	area with substrate YNLYFQS	area with substrate FNLYFQS	area with substrate RNLYFQS	area with substrate QNLYFQS
K46C	0.0649	0.075	0.0583	0.0543	0.0616	0.0619	0.0552	0.0806	0.081	0.0523	0.0649	0.0519	0.0712	0.0561	0.0566	–	–	–
K46M	0.0557	0.0524	0.0544	0.0703	0.0649	0.0589	0.054	0.0619	0.0628	0.0523	–	–	0.0315	0.0487	0.0719	0.0493	–	–
K46T	0.0503	0.0664	0.0589	0.0555	0.0513	0.0681	0.0534	0.0692	0.0525	0.0654	0.0604	–	0.0526	0.0567	0.0519	0.0602	–	–
H47C	0.0574	0.0467	0.0583	–	0.0584	0.0693	0.062	–	–	0.0408	0.0484	0.0502	0.0431	–	–	0.05	–	–
H47E	0.0574	0.055	0.0579	0.0456	0.0604	0.0569	–	0.0615	0.0569	0.0658	0.062	0.0564	–	0.0616	0.0586	0.0682	–	–
F49A	0.0492	0.0505	–	0.0506	–	–	0.0544	0.0552	0.0513	0.0514	0.0526	0.0586	0.0582	0.0569	0.0532	0.0491	–	–
F49I	0.096	0.0727	0.0585	0.0604	–	0.0735	0.0531	0.0507	0.0577	0.0598	–	0.063	0.0626	0.0576	–	0.0616	0.0543	–
F49M	0.0676	0.0526	0.0397	0.0547	0.0562	0.0637	0.0603	–	0.0695	0.0588	0.0533	0.0565	0.0899	0.0549	0.0415	0.0536	0.0529	–
R50H	0.0716	0.0814	0.0795	0.0797	0.0708	–	0.0786	–	0.0567	0.0898	–	0.104	–	–	0.066	–	–	0.0835
R50K	0.0548	0.0721	0.0532	0.0691	0.0696	–	0.0579	–	0.0562	0.0958	–	0.0656	0.074	0.0452	0.0557	–	0.0683	–
R50P	0.0791	0.0711	0.053	0.0664	0.0563	0.0598	0.0654	0.0725	0.0593	0.0654	–	0.0657	0.0575	0.056	0.0721	0.0556	–	0.0582
N52C	0.0469	0.0558	0.0579	0.0627	–	0.0589	0.0653	0.0588	–	0.0518	0.0455	0.0624	–	0.0613	0.0575	0.033	0.0452	0.0693

— the supplement of paper PMC12217912
